Test results reported in PubChem BioAssay AID1345082 (National Center for Advancing Translational Sciences (NCATS), 2018).
“And” between values parts separate entries of the source, which are not always exact repeats. Equal entries are not always repeated. In all, about 94,000 compounds went through this assay and about 4,000 (4.3%) were called active. This list was built around the results that the source calls inconclusive (neither active nor inactive); the mix of calls is not that of the screen. Calls follow the shape of the dose curve; as a rule, active = well fitted inhibition curve with a large enough effect; inconclusive = small, poorly fitted or top-dose-only effect; inactive = no such curve, though single readings can be large or run the other way. Potencies of inconclusive entries are doubtful fits and often do not repeat.
% is scaled to controls: 0 for no effect and ±100 for the full control effect; potency is read from the fitted curve at half-maximal effect; tags tell the direction and shape of the fitted curve.

Experiment: Cytotoxic Profiling in NIH 3T3 Cell Line of Diverse Libraries Using Quantitative High-Throughput Screening; also: nearly all actives have a fitted effect of over 55% in size
Conditions: NIH 3T3 viability, CellTiter-Glo ATP luminescence, 48-72 h; activity change, negative = cytotoxicity: at 96.7 µM (top of the series) unless noted; series mostly up to 96.7 µM
Outline: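 Cells were seeded at 400 per well, treated with pin-transferred compound, and kept 48 or 72 hr at 37 °C before CellTiter-Glo addition and luminescence imaging of cellular ATP.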
For `O=C(Nc1ccccc1)[C@@H]1C[C@@H](c2ccc(F)cc2)N([S+](=O)([O-])c2cccnc2)C1`, the Potency was inconclusive: 89.1 µM [inhibitor, partial curve, poor fit].
For `CNC(=O)N1CCC(C2CCN(C(=O)COc3cccc(C)c3)C2)CC1` (stereo unspecified), the “activity change, negative = cytotoxicity” value was inactive: -7.28%.
For `COc1ccc(OCC2CN(CC(C)C)[S+](=O)([O-])c3cnccc3O2)cc1` (stereo unspecified), the “activity change, negative = cytotoxicity” value was inactive: -38.2% [at 46.1 µM].
For `c1ccc(Nc2ncc(-c3ccccc3)c3c2OCC3)cc1`, the Potency was inconclusive: 56.2 µM [inhibitor, full curve, poor fit].
With `CN(CC1(C)CCOCC1)C(=O)c1c(F)cccc1Cl` the “outcome” value was “inactive”.
With `Cc1cnc(CCNC(=O)c2cccs2)n1CC1CC1` the “activity change, negative = cytotoxicity” value was inactive: -4.16%.
In the case of `CC(C)N1CCC(N2CCN(Cc3cn(C(C)C)c4ccccc34)CC2CCO)CC1` (stereo unspecified), the Potency is reported as inconclusive: 89.1 µM [inhibitor, single point].
With `COc1ccc(C2=NOC3(CCCN(Cc4ccccn4)C3)C2)cc1` (stereo unspecified) the Potency was inconclusive: 39.8 µM [inhibitor, partial curve, poor fit].
In the case of `COc1ccccc1OCc1cc(C(=O)N(C)CC2Cc3ccccc3O2)n[nH]1` (stereo unspecified), the Potency is reported as inconclusive: 56.2 µM [inhibitor, partial curve, poor fit].
In the case of `NC(=O)c1ccc(NC(=O)Cn2nc3c(cc2=O)CCCCC3)cc1`, the “activity change, negative = cytotoxicity” value is reported as inactive: -12%.
With `Cc1ccccc1C(=O)N1CCN(Cc2ccccc2-c2cccnc2)CC1` the Potency was inconclusive: 14.1 µM [inhibitor, full curve, poor fit].
For `COCc1nc(C2CCCN(C(=O)NC3CCCC3)C2)no1` (stereo unspecified), the “activity change, negative = cytotoxicity” value was inactive: 4.65%.
In the case of `CCOc1ccccc1NC(=O)N1C[C@@H](F)C[C@H]1C(=O)N1CCCCC1`, the Potency is reported as inconclusive: 50.1 µM [inhibitor, partial curve, poor fit].
For `COc1cccc(-c2cc(C(=O)NCC(F)F)c3cnn(C)c3n2)c1`, the Potency was inconclusive: 50.1 µM [inhibitor, partial curve, poor fit].
For `COc1cccc(CN2C(=O)OC3(CCN(C(=O)c4cnccn4)CC3)C2(C)c2cccnc2)c1` (stereo unspecified), the Potency was inconclusive: 39.8 µM [inhibitor, partial curve, poor fit].
In the case of `Cn1ncc2c(C(=O)NCc3ccc(Cl)cc3)cc(-c3cccc(F)c3)nc21`, the Potency is reported as active: 31.6 µM.
In the case of `C#CCNC(=O)C[C@@H]1C[C@@H](C(C)C)[C@H](CNS(=O)(=O)Cc2ccccc2)C=C1C`, the Potency is reported as inconclusive: 112 µM [inhibitor, single point].
In the case of `Cc1noc([C@@H]2CN(Cc3ccccc3F)C[C@H]2CO)n1`, the “activity change, negative = cytotoxicity” value is reported as inactive: -1.88%.
With `CCNC(=O)N1CCC(Oc2ccc(-c3noc(-c4ccccc4)n3)cc2)C1` (stereo unspecified) the Potency was inconclusive: 28.2 µM [inhibitor, partial curve].
In the case of `CCOC(=O)C1CCN(C(=O)c2cn3ccnc(-c4ccc(C)cc4)c3n2)CC1`, the Potency is reported as inconclusive: 50.1 µM [inhibitor, partial curve, poor fit].
For `CC(C)c1ccc(S(=O)(=O)N2CCC(CCc3nc(C4CCOCC4)no3)CC2)cc1`, the Potency was inconclusive: 35.5 µM [inhibitor, partial curve].
For `Cn1cc(C#N)cc1C(=O)N1CCCC(C)(Cc2ccc3c(c2)OCO3)C1` (stereo unspecified), the Potency was inconclusive: 20 µM [inhibitor, partial curve, poor fit].
With `O=C(NCc1cccc(F)c1)c1cnc2c(c1)N(C(=O)CCc1ccccc1)CCC2` the Potency was inconclusive: 50.1 µM [inhibitor, partial curve, poor fit].
In the case of `O=C1NCCCCCN(C(=O)C2CCC2)[C@H]2CCCC[C@@H]12`, the “activity change, negative = cytotoxicity” value is reported as inactive: -6.87%.
For `Cc1cc(C)cc(-c2ccc(CN3CCCC(NC(=O)c4ccc(Cl)nc4)C3)cc2)c1` (stereo unspecified), the “activity change, negative = cytotoxicity” value was inactive: -12.2%.
With `O=C(c1ccccc1F)N1CCCN(c2cc(-c3ccc(Cl)cc3)[nH]n2)CC1` the Potency was inconclusive: 50.1 µM [inhibitor, partial curve, poor fit].
For `Cc1ccc(-c2ccc3nnc(CNC(=O)Cc4cccc(F)c4)n3n2)cc1C`, the Potency was inconclusive: 70.8 µM [inhibitor, single point].
With `CC(C)Oc1ccc(C(=O)N2CC(c3nnc(C(C)C)o3)C3(CCOCC3)C2)cc1` (stereo unspecified) the “activity change, negative = cytotoxicity” value was inactive: -9.6%.
With `O=c1n(-c2ccc(C(F)(F)F)cc2)nc2n1CCN(Cc1cccc3ccccc13)C2` the Potency was inconclusive: 44.7 µM [inhibitor, partial curve, poor fit] and inconclusive: 50.1 µM [inhibitor, partial curve, poor fit].
With `CCc1noc(-c2cn(C3CCN(C(=O)c4ccc(OC)c(F)c4)C3)nn2)n1` (stereo unspecified) the “activity change, negative = cytotoxicity” value was inactive: -20.2%.
With `COc1cc(C(=O)NC2CCN(c3cc(-c4ccc(Cl)cc4)[nH]n3)C2)cc(OC)c1OC` (stereo unspecified) the Potency was inconclusive: 44.7 µM [inhibitor, partial curve, poor fit].
With `O=C(Cc1ccccc1)NCCC1CCN(C(=O)Nc2ccc(F)cc2)CC1` the “activity change, negative = cytotoxicity” value was inactive: -4.96%.
In the case of `CN1C(=O)C(CC(=O)NCc2nnnn2-c2ccccc2)N(C)C1=O` (stereo unspecified), the “outcome” value is reported as “inactive”.
In the case of `COCCN1C(=O)CCc2cc(NC(=O)c3ccccc3C)ccc21`, the “activity change, negative = cytotoxicity” value is reported as inactive: -13.3%.
For `O=C(NCCc1noc(-c2ccccc2)n1)C1COc2ccccc2C1` (stereo unspecified), the Potency was inconclusive: 56.2 µM [inhibitor, partial curve, poor fit].
For `O=C(NCC1CCCCC1)c1ccc2c(c1)N(S(=O)(=O)c1ccccc1)CC2`, the Potency was active: 39.8 µM.
In the case of `CC(NC(=O)C1CCN(C(=O)c2ncn3c2COC(c2ccc(Cl)cc2)C3)CC1)c1ccccc1` (stereo unspecified), the “outcome” value is reported as “inactive”.
For `O=C(c1ccc(C(F)(F)F)cc1)N1CCN(C(=O)c2nc3cccnc3n(CCc3ccccc3)c2=O)CC1`, the Potency was inconclusive: 50.1 µM [inhibitor, partial curve, poor fit].
In the case of `Cc1noc(C)c1CCNC(=O)C1CCN(C(=O)c2ncn3c2COC(c2ccc(F)cc2)C3)CC1` (stereo unspecified), the Potency is reported as inconclusive: 79.4 µM [inhibitor, single point].
With `O=C(NCC1CC1)c1ccc2nnc(-c3ccc(OC(F)(F)F)cc3)n2c1` the Potency was inconclusive: 44.7 µM [inhibitor, partial curve, poor fit].
With `COc1ccc(-c2[nH]nc3ncc(-c4ccccc4O)nc23)c(C)c1` the Potency was inconclusive: 56.2 µM [inhibitor, partial curve, poor fit].
In the case of `COCC(=O)N[C@H]1CC[C@]2(C)CC[C@@H]([C@H](C)C(=O)NCc3cccs3)[C@H](O)[C@H]2[C@@H]1C`, the “activity change, negative = cytotoxicity” value is reported as inactive: -5.81%.
In the case of `Cc1nn2c(c1-c1ccccc1OCc1ccccc1)N(CC1CC1)CCC2`, the Potency is reported as inconclusive: 17.8 µM [inhibitor, full curve, poor fit].
With `Cc1ccc(Oc2c(CCC(=O)NC(C)C)c(C)nn2-c2ccccc2)cc1` the Potency was inconclusive: 39.8 µM [inhibitor, partial curve].
With `CNC(=O)[C@@H]1CN(Cc2ccc(Br)o2)C[C@H]1c1nc(COC)no1` the “activity change, negative = cytotoxicity” value was inactive: 1.02%.
With `Cc1ccccc1CC(=O)N1CCN(C(=O)c2nnn3c2COC(c2ccccc2)C3)CC1` (stereo unspecified) the “activity change, negative = cytotoxicity” value was inactive: -5.05%.
With `COc1ccc(C(=O)N2CCN(Cc3ccccc3-c3ccccc3F)CC2)cc1` the Potency was inconclusive: 50.1 µM [inhibitor, partial curve, poor fit].
With `Cc1ccccc1Oc1ncccc1CNC(=O)c1cnn2ccccc12` the Potency was inconclusive: 79.4 µM [inhibitor, partial curve, poor fit].
For `CN1Cc2ccc(Nc3ccccc3)nc2C(C)(C(=O)NCc2cccs2)C1` (stereo unspecified), the Potency was inconclusive: 56.2 µM [inhibitor, partial curve, poor fit].
For `Cc1nnsc1C(=O)N1CCCC(c2ccccc2)(c2ccccc2)C1`, the Potency was inconclusive: 79.4 µM [inhibitor, single point].
In the case of `CN1C[C@@H](NC(=O)Nc2cccc(C(F)(F)F)c2)C[C@H]1c1nc(-c2cnccn2)no1`, the “activity change, negative = cytotoxicity” value is reported as inactive: 2.16% [at 174 µM].
In the case of `Cc1cccc(CN2CCCC(O)(CNCc3ncccc3C)C2=O)c1` (stereo unspecified), the Potency is reported as active: 14.1 µM.
With `O=C(NC1CCCC1)N1CCC(Cc2nncn2CC2CC2)CC1` the “outcome” value was “inactive”.
With `COc1cc(C(=O)NC2CCCN(c3ncccn3)C2)cc(OC)c1OC` (stereo unspecified) the Potency was inconclusive: 100 µM [inhibitor, partial curve, poor fit].
With `CC(C)OCCCNC(=O)c1cc(-c2ccc(C(F)(F)F)cc2)nc2c1cnn2C` the Potency was inconclusive: 39.8 µM [inhibitor, partial curve, poor fit].
With `CNC(=O)c1cc2cc(-c3c(C)noc3C)nc(-c3ccccc3C)c2o1` the Potency was active: 11.2 µM.
In the case of `CCOc1ccc(NC(=O)N2CCCC(Cn3c(C4CC4)nc4cccnc43)C2)cc1` (stereo unspecified), the “activity change, negative = cytotoxicity” value is reported as inactive: -24.2%.
In the case of `CN1C[C@@H](NC(=O)Nc2ccc(Cl)cc2)C[C@H]1c1nc(-c2ccc(F)cc2)no1`, the Potency is reported as inconclusive: 35.5 µM [inhibitor, partial curve, poor fit].
For `O=C(NCc1ccc(F)cc1)c1c(-c2ccccc2)cc(=O)n2c1CCCC2`, the Potency was inconclusive: 56.2 µM [inhibitor, partial curve, poor fit].
For `Cc1ccc(CN2C[C@@H](CO)[C@H](c3ccccn3)C2)nc1`, the Potency was inconclusive: 39.8 µM [inhibitor, partial curve, poor fit].
In the case of `O=C(CC1CCCCC1)N1CCC(n2cc(-c3nc(-c4ccccc4)no3)nn2)CC1`, the Potency is reported as inconclusive: 50.1 µM [inhibitor, partial curve, poor fit].
For `Cc1ccc(CC(=O)N2CCC(n3cc(-c4nc(C)no4)nn3)CC2)cc1`, the “activity change, negative = cytotoxicity” value was inactive: -25.6%.
For `O=C(c1ccccc1F)N1CCn2c(nn(-c3ccc(Cl)cc3)c2=O)C1`, the “activity change, negative = cytotoxicity” value was inactive: -33.1%.
With `FC(F)(F)c1ccccc1-c1cc(-c2cccnc2)c2cncn2c1` the Potency was active: 44.7 µM.
In the case of `O=C(CCc1nnn2c1CN(C(=O)c1ccccc1)CC2)NC1CC1`, the “activity change, negative = cytotoxicity” value is reported as inactive: -32.7%.
With `CN1C[C@@H](NC(=O)c2ccc(C(C)(C)C)cc2)C[C@H]1c1nc(-c2ccc3ccccc3c2)no1` the Potency was inconclusive: 35.5 µM [inhibitor, full curve].
